The results in this text go back to the antibiotic and cytotoxicity screens of Wong et al. (2023).

Some of the results follow.

The assay concerns HepG2. The assay is described as follows: cytotoxicity call (relative viability < 0.9). The settings on record: 10 µM.
Turning to `Cc1ccc(S(=O)(=O)N(C)C[C@H]2Oc3ccc(NC(=O)Nc4cccc5ccccc45)cc3C(=O)N([C@H](C)CO)C[C@@H]2C)cc1`, the cytotoxicity call was “inactive”. With `C[C@H](CO)N1C[C@H](C)[C@H](CN(C)S(=O)(=O)c2cccs2)Oc2ccc(NS(=O)(=O)c3ccccc3)cc2C1=O` the entry was “inactive”; with `C[C@@H]1CCCCO[C@@H](CN(C)Cc2ccccc2)[C@@H](C)CN([C@H](C)CO)C(=O)c2cc(NC(=O)Cc3ccccc3)ccc2O1`, “inactive”; with `COc1ccccc1-c1cnc2c(c1)C(=O)N([C@H](C)CO)C[C@H](C)[C@H](CN(C)C(=O)c1ccncc1)O2`, “inactive”. With `CCOC(=O)[C@@H](C)n1ncn2cccc2c1=O` the entry was “inactive”; with `Cc1ccc(S(=O)(=O)N(C)C[C@H]2Oc3ccc(NS(=O)(=O)c4cccs4)cc3C(=O)N([C@@H](C)CO)C[C@H]2C)cc1`, “inactive”. `O=c1[nH]cc(F)c(=O)[nH]1`: the cytotoxicity call is “active”. The value for `CO[C@H]1CN(C)C(=O)c2cc(NS(=O)(=O)CC(F)(F)F)ccc2OC[C@@H](C)N(C(=O)c2ccc3c(c2)OCO3)C[C@@H]1C` was “inactive”; that for `CN(C)Cc1cn(CC[C@@H]2CC[C@@H](NS(=O)(=O)c3ccccc3)[C@@H](CO)O2)nn1` was “inactive”. Consider `C[C@@H]1CCCCO[C@H](CN(C)C(=O)NC2CCCCC2)[C@H](C)CN([C@H](C)CO)C(=O)c2cc(NC(=O)Nc3cccc4ccccc34)ccc2O1`, for which the cytotoxicity call is “inactive”. Regarding `C[C@@H]1CN([C@@H](C)CO)C(=O)c2cc(NC(=O)Cn3cnnn3)ccc2O[C@@H]1CN(C)S(=O)(=O)c1ccc(Cl)cc1`, the cytotoxicity call was “inactive”.
